# The supplement of paper PMC3334620
# Whole data set: some 33,000 sequences, median “E-score (-0.5 to 0.5)” near -0.041, cut for the highest 2% near 0.37. The list shows a part of the results.
# Target: T1, Ecm22 (UniProt Q05958)
# T1 sequence: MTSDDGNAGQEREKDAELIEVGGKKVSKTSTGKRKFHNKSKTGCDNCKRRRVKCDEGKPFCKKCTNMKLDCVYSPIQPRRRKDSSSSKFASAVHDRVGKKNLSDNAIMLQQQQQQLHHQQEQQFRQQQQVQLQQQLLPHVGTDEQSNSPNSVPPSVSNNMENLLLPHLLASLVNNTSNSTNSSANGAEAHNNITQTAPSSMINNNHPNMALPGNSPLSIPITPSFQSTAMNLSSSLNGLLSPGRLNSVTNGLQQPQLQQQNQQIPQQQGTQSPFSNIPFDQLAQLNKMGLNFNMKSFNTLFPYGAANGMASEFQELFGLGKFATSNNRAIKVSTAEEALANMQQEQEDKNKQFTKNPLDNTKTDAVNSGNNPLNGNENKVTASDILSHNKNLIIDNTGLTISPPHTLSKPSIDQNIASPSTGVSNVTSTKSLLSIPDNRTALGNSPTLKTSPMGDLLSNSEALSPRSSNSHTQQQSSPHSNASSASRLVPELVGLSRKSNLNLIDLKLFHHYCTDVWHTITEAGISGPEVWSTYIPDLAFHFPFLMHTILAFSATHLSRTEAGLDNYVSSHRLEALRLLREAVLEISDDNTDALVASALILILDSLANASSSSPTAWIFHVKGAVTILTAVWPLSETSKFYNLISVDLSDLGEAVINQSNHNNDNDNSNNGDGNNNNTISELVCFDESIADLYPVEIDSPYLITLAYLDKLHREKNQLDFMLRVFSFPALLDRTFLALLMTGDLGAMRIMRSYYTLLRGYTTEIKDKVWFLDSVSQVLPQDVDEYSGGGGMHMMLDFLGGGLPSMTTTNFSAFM
# Assay: PBM E-score (8-mer binding enrichment) (E-score (-0.5 to 0.5)); higher = stronger / more preferred TF binding; most listed sequences are background and not binding sites
# Conditions: protein concentration: 200 nM; construct: GST-full length
# Summary of the method: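 Universal all-10-mer Agilent arrays, fresh or stripped once, were converted to double-stranded form by primer extension. GST-tagged yeast transcription factors from PURExpress in vitro transcription/translation, full-length or DNA-binding domain only, were applied at about 100-200 nM and detected with fluorescent anti-GST. After masliner normalisation, the Universal PBM Analysis Suite scored each ungapped eight-base word together with its reverse complement by E-score.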
row,Sequence,PBM E-score
1,CTGCCCAC,-0.311
2,GCATAAGC,-0.0897
3,CAACATTA,0.00217
4,ACCACTCT,-0.111
5,ACGTCGAC,0.0174
6,ATACCAAG,0.0186
7,CATGTGTC,-0.116
8,CCCAGAGA,-0.156
9,ACCATACC,-0.0348
10,AATATACC,0.00797
11,ATGAACCA,-0.0923
12,ATCAGCAT,-0.0651
13,ACGAGGAG,0.349
14,AAGTGGGC,0.0397
15,AAAAGTTT,-0.145
16,CCCTACGA,0.161
17,CGACCTCA,0.0343
18,CGCTGATA,0.0357
19,ACGGCTGG,0.069
20,ACAGGCGG,-0.222
21,AGGTACGG,0.424
22,ATGACATG,-0.182
23,CAGAGTAG,-0.136
24,ACGACAAG,0.334
25,GACAGTCC,-0.149

row,Sequence,PBM E-score
1,GTCAAAAA,-0.139
2,CTTCGAGA,-0.0893
3,CCTAGTCA,-0.118
4,AAAGTGAC,-0.12
5,ACTGGCCT,-0.0517
6,TAAATATA,0.109
7,GCTTGGCA,-0.0829
8,AGAGGCAC,-0.088
9,CAGTTCAC,-0.0389
10,GTGCGCGA,0.0692
11,CACACAAA,0.0355
12,ATATTGTG,0.0189
13,ATTAACAG,-0.0716
14,GTATGGCA,0.161
15,GTCAGCTA,-0.0674
16,CAGTATCA,-0.0764
17,ATGCCACG,-0.18
18,CACTTGTA,-0.0815
19,TAACTGAA,-0.154
20,CTGAGCTA,-0.153
21,TTAGAAAA,-0.197
22,ACTTTTCG,0.166
23,ACCACGGA,-0.111
24,GCAGTGCA,-0.0696
25,CCACGCAC,-0.147

row,Sequence,PBM E-score
1,ATATGGTC,0.0594
2,ATCTGCCA,-0.0853
3,CTCGCTTA,0.41
4,AAATTGTT,-0.071
5,ATAACCTG,-0.0622
6,ATGATTGA,0.0922
7,ACAGCTGC,-0.104
8,GGAGGGCC,-0.333
9,CTGACCTA,0.0156
10,ACCACACA,0.0735
11,AGCTGAAT,-0.0806
12,CATCAGTA,-0.0123
13,CCTAACGC,0.025
14,CACTGTTA,-0.0375
15,AACCGAGG,0.274
16,CGTTCCTC,0.452
17,CATTGTAA,0.0755
18,ACCGCTGC,-0.0928
19,ACGACTCC,0.289
20,CATCATGA,-0.0471
21,AACCGCAG,-0.166
22,ATAACTTA,0.025
23,CCCCGCCG,-0.165
24,GAGTTGTA,0.0214
25,CATTAACA,-0.0369

row,Sequence,PBM E-score
1,CGACTGAG,0.0682
2,AGTGGAAT,-0.0777
3,AGTACCGA,0.0799
4,AGAGCGCC,-0.0862
5,CCACAGGC,-0.353
6,GCCACAAC,-0.055
7,AAGCCCGC,-0.00641
8,GACTGATC,-0.104
9,AGCCATCG,0.149
10,GATTGACC,-0.0386
11,ACGAGCCA,0.404
12,AGGGTCTG,-0.298
13,GATTGACA,0.0347
14,AGTCTAAT,-0.141
15,CCTGTGCA,-0.0315
16,CAGACCAG,-0.12
17,CCAAAGAA,-0.103
18,AGACATTC,-0.159
19,CAGCACTG,-0.217
20,GGCAAGGA,-0.151
21,CCGGTAAA,0.081
22,AAGAGAGC,-0.147
23,ACTCGACC,0.0863
24,ATAGATAA,0.0681
25,CACTGTAG,0.0186

row,Sequence,PBM E-score
1,ATGGCGCC,-0.237
2,AGACGGCA,-0.0953
3,CCGATCCG,0.198
4,TATGTCAA,0.0884
5,AATCGCGA,0.261
6,AAGTCGCA,0.176
7,CCATAAGC,-0.248
8,AAGCGGGC,0.00141
9,ATACCTCG,0.241
10,CCTATCGC,0.0262
11,CTGTCTAA,-0.02
12,TCTAGGCA,-0.207
13,CACGGTCG,0.0505
14,TCCAAGCA,-0.11
15,GATTCCGC,-0.0807
16,GGCTTTTA,-0.165
17,ATCGTAAC,0.368
18,ACGGTGGG,0.0966
19,CGGTACCG,0.234
20,AATATGTC,0.0452
21,GCTGGTCC,-0.137
22,AAATAAGC,0.0207
23,ACTTGTAA,-0.324
24,CGCGAGGA,0.202
25,GCCAACTA,-0.17

row,Sequence,PBM E-score
1,ATTTAGTC,-0.0668
2,CGAAAAGC,0.0459
3,CCATTCGC,-0.0115
4,TGTCGTAA,0.428
5,CAGAGGAA,-0.12
6,CCCGTGTC,0.0329
7,TGGATACA,-0.057
8,CATCGGGC,-0.133
9,AAAGTAAG,-0.0711
10,ACGACTAA,0.231
11,CTAAACAC,-0.152
12,CCCGTTGA,-0.12
13,GGCGGACC,-0.242
14,GCCAGCAA,-0.198
15,AGGGATCG,0.0528
16,CAAGGCCA,-0.0891
17,CGTGAGGC,-0.133
18,CACCTCAG,-0.224
19,ACGACTAT,0.323
20,CTCATCCC,0.0246
21,GGCGGGAA,-0.139
22,CAGATTGC,0.0722
23,ACCGCCCT,-0.161
24,CATCGATA,0.127
25,ACACCCCC,-0.424

row,Sequence,PBM E-score
1,CGCCGACG,0.00135
2,GTGGGAAC,0.0336
3,CAGCTTCC,-0.149
4,GGCGCCAC,-0.0732
5,CAGCTCCC,-0.0851
6,GGTGACGA,0.0878
7,GAACCTCC,0.0557
8,ATTAAACA,-0.163
9,AATATCTA,-0.0604
10,ACTGAATG,0.0422
11,CGCCTACG,0.0616
12,GGAACCTA,-0.204
13,AATAATCT,-0.0495
14,ATTAGGCG,0.0612
15,TGACCAAA,-0.0982
16,ATGAACGA,0.453
17,CACCTCAA,-0.0825
18,CCCTAGGG,-0.321
19,ATGACATC,-0.0503
20,AAAGACCA,-0.188
21,CTTGCCAA,-0.0729
22,TTCAGGAA,0.0542
23,CACATGCC,-0.266
24,ACTCGCAT,0.319
25,CTTGGGGA,-0.171

row,Sequence,PBM E-score
1,GTTAGATA,-0.0169
2,CCGTAAGG,-0.0224
3,TGACAACA,-0.0795
4,ACTAGGCC,-0.2
5,AGTAAAGG,-0.158
6,AGAGGTGG,-0.209
7,GAGCAGAC,0.0159
8,CACGCGAG,0.253
9,AAGGTTAG,-0.271
10,CGATCAGC,0.09
11,AGATCCCG,0.127
12,GGCCAGTA,-0.0345
13,CAGGGCCC,-0.219
14,CGTATTTA,0.369
15,AGGCTACA,-0.293
16,ACTCTCAA,-0.137
17,CCTTACCA,-0.277
18,CCAGCACC,-0.186
19,ACTTAAAG,-0.25
20,ACCACCCC,-0.127
21,AATGTTAT,-0.143
22,CACCTCTA,-0.0462
23,CTGTTAAC,0.136
24,CAACGCCC,-0.143
25,TAAACAAA,0.114

row,Sequence,PBM E-score
1,CGGCTTGA,-0.0278
2,CGCTGCTC,-0.0896
3,CCTTAATC,-0.203
4,AAATTCGC,0.128
5,CTACAATC,0.0261
6,ATCGCGTG,0.141
7,CAATACAG,-0.0911
8,CCGACAGG,0.0786
9,CGGATATA,0.256
10,CTTTGGAA,-0.199
11,AACAACAT,0.0857
12,GCGCTTAC,-0.00017
13,CACCCGCA,-0.177
14,AGATTTTG,-0.18
15,CACAGAGC,-0.11
16,GACATAAC,-0.0145
17,AGTGTAGG,-0.116
18,TGCGGACA,0.139
19,GGGCTACA,-0.169
